B1: EPYC, Q99645 (protein)
chain: MKTLAGLVLGLVIFDAAVTAPTLESINYDSETYDATLEDLDNLYNYENIPVDKVEIEIATVMPSGNRELLTPPPQPEKAQEEEEEEESTPRLIDGSSPQEPEFTGVLGPHTNEDFPTCLLCTCISTTVYCDDHELDAIPPLPKNTAYFYSRFNRIKKINKNDFASLSDLKRIDLTSNLISEIDEDAFRKLPQLRELVLRDNKIRQLPELPTTLTFIDISNNRLGRKGIKQEAFKDMYDLHHLYLTDNNLDHIPLPLPENLRALHLQNNNILEMHEDTFCNVKNLTYIRKALEDIRLDGNPINLSKTPQAYMCLPRLPVGSLV
B2: OR2B6, P58173 (protein)
chain: MNWVNDSIIQEFILLGFSDRPWLEFPLLVVFLISYTVTIFGNLTIILVSRLDTKLHTPMYFFLTNLSLLDLCYTTCTVPQMLVNLCSIRKVISYRGCVAQLFIFLALGATEYLLLAVMSFDRFVAICRPLHYSVIMHQRLCLQLAAASWVTGFSNSVWLSTLTLQLPLCDPYVIDHFLCEVPALLKLSCVETTANEAELFLVSELFHLIPLTLILISYAFIVRAVLRIQSAEGRQKAFGTCGSHLIVVSLFYSTAVSVYLQPPSPSSKDQGKMVSLFYGIIAPMLNPLIYTLRNKEVKEGFKRLVARVFLIKK
B3: ZPBP2, Q6X784 (protein)
chain: MMRTCVLLSAVLWCLTGVQCPRFTLFNKKGFIYGKTGQPDKIYVELHQNSPVLICMDFKLSKKEIVDPTYLWIGPNEKTLTGNNRINITETGQLMVKDFLEPLSGLYTCTLSYKTVKAETQEEKTVKKRYDFMVFAYREPDYSYQMAVRFTTRSCIGRYNDVFFRVLKKILDSLISDLSCHVIEPSYKCHSVEIPEHGLIHELFIAFQVNPFAPGWKGACNGSVDCEDTTNHNILQARDRIEDFFRSQAYIFYHNFNKTLPAMHFVDHSLQVVRLDSCRPGFGKNERLHSNCASCCVVCSPATFSPDVNVTCQTCVSVLTYGAKSCPQTSNKNQQYED
B4: FAM81B, Q96LP2 (protein)
chain: MQLQFLGTLASSEKRKKSQRLFFKNIKSTKNKAGKASIMSSDTNVNKSASPTATAEEQPVEPDGPLPGSDNNQEKKVRLSPAKMSTKNSTDLVEYVDKSHAFLPIIPNTQRGQLEDRLNNQARTIAFLLEQAFRIKEDISACLQGTHGFRKEESLARKLLESHIQTITSIVKKLSQNIEILEDQIRARDQAATGTNFAVHEINIKHLQGVGDLRGRVARCDSSIVKLSGDIHLFRQEHRQIEKAIQEFVPALETLSKNLDMKVMQLLGKIETASSEQTSNLKMVQGDYRHEMNLLEFKFHSLSSNLYEEVENNKKWTENQFLKYRKDHLGHINECLKVLQEKLEKSENKMEEKLLQLSSKVENFINTQKQETQLSKVKHMENKLSKKMEQMEKQIWGELETMQNEYQSGFKSIHDSLSSLQQIQKTKMDLEKYKVQKDLKKLQRKIVELQEV
B5: MS4A12, Q9NXJ0 (protein)
chain: MMSSKPTSHAEVNETIPNPYPPSSFMAPGFQQPLGSINLENQAQGAQRAQPYGITSPGIFASSQPGQGNIQMINPSVGTAVMNFKEEAKALGVIQIMVGLMHIGFGIVLCLISFSFREVLGFASTAVIGGYPFWGGLSFIISGSLSVSASKELSRCLVKGSLGMNIVSSILAFIGVILLLVDMCINGVAGQDYWAVLSGKGISATLMIFSLLEFFVACATAHFANQANTTTNMSVLVIPNMYESNPVTPASSSAPPRCNNYSANAPK

The list shows a part of the results. Interaction screen of human proteins with wild-type SARS-CoV-2 proteins by split-DHFR complementation in yeast, 1 µg/mL methotrexate. Value = fitness of the pair (three or more lineages) minus that of the viral protein without a human partner, on a scale set by negative (0) and fused positive (1) controls, mean of up to three cultures; higher = more likely to interact. Active = false discovery rate below 0.05 (one-sided t-test) in at least one culture. Nearly all pairs are not hits, and differences among them are mostly noise (correlation between cultures about 0.3); most hits were seen in one culture only. Human sequences are the Swiss-Prot entries looked up by gene name; the clone may be another isoform. NSP2 values were corrected by the authors for a growth advantage. Listed are human proteins with a hit and a random twelfth of the others.

The target in one assay is SARS-CoV-2 NSP10. Briefly: yeast fitness gain over the viral ORF with no human partner (scaled fitness); higher = more likely to interact. The protocol:
(§1)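 Split mouse DHFR complementation in pooled diploid yeast: human ORFeome clones carry one fragment and viral ORFs the other; barcoded lineages compete in 1 µg/mL methotrexate and fitness is read by barcode sequencing in up to three cultures.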
As for B1, the yeast fitness gain was inactive: 0.0729.
Still for that read-out and setting: for B2 the value was inactive: -0.0102; for B3, inactive: 0.0788.
Same read-out and setting: for B4 the value was inactive: 0.019.
Same read-out and setting: for B5 the value was inactive: 0.0772.

A further assay deals with SARS-CoV-2 NSP12. Described as above. The protocol: as §1
With B1, the yeast fitness gain was inactive: -0.0382.
As for B2, the yeast fitness gain was inactive: -0.0132.
As to B4, the yeast fitness gain is inactive: -0.248.
For B5, the yeast fitness gain was inactive: 0.0178.

Another assay deals with SARS-CoV-2 NSP13. Described as above. As for the experimental part:
as §1
For the molecule B1, the yeast fitness gain was inactive: -0.108.
On the same count and under the same terms, for B2 the value was inactive: -0.0546.
Same read-out and setting: for B3 the value was inactive: -0.251; for B4, inactive: -0.0427.
On to B5, for which the yeast fitness gain was inactive: 0.0438.

The next assay has as its target SARS-CoV-2 NSP2. Described as above. The protocol:
as §1
For B1, the yeast fitness gain was inactive: -0.18.
The same measure, in the same setting: for B2 the value was inactive: -0.235.
Same read-out and setting: for B3 the value was inactive: -0.0786; for B4, inactive: -0.279.
Regarding B5, the yeast fitness gain was inactive: -0.117.

In a further assay the target is SARS-CoV-2 NSP5. Described as above. The protocol:
as §1
Take B1: the yeast fitness gain was inactive: -0.00781.
Same read-out and setting: for B2 the value was inactive: -0.0853; for B4, inactive: 0.0459.
On the same count and under the same terms, for B5 the value was inactive: 0.0395.

The target of a further assay is SARS-CoV-2 NSP9. The assay is described as above. The protocol:
as §1
As to B1, the yeast fitness gain is inactive: 0.132.

For the next assay, the target named is SARS-CoV-2 ORF3B. The description is as above. The protocol: as §1
As for B1, the yeast fitness gain was inactive: 0.0144.
Still for that read-out and setting: the same measure for B2: inactive: -0.0822.
With B3, the yeast fitness gain was inactive: -0.179.
Still for that read-out and setting: the same measure for B4: inactive: 0.0245; for B5: inactive: -0.0498.

Another assay addresses SARS-CoV-2 ORF6. The description is as above. The protocol:
as §1
B1: the yeast fitness gain was inactive: 0.0173.
Take B2: the yeast fitness gain was inactive: -0.0176.
Regarding B3, the yeast fitness gain is inactive: -0.041.
In the case of B4, the yeast fitness gain is inactive: -0.0754.
Same read-out and setting: for B5 the value was inactive: -0.0697.

A further assay deals with SARS-CoV-2 ORF7A. The description is as above. As for the experimental part:
as §1
With B1, the yeast fitness gain is inactive: -0.0414.
Same read-out and setting: the same measure for B2: inactive: 0.00333; for B4: inactive: -0.0832; for B5: inactive: -0.00571.

For another assay, the target named is SARS-CoV-2 ORF9B. The description is as above. The protocol: as §1
For B1, the yeast fitness gain is inactive: -0.00986.
Same read-out and setting: for B3 the value was inactive: 0.0346; for B4, inactive: -0.0187; for B5, inactive: -0.0319.

In the next assay the target is SARS-CoV-2 NSP15. The description is as above. The protocol: as §1
Take B2: the yeast fitness gain was inactive: -0.119.
Turning to B5, the yeast fitness gain is inactive: -0.0106.

For a further assay, the target named is SARS-CoV-2 NSP6. Described as above. The protocol:
as §1
B2: the yeast fitness gain was inactive: 0.0367.
Same read-out and setting: the same measure for B3: inactive: 0.041; for B4: inactive: -0.104; for B5: inactive: 0.0843.

The next assay concerns the target SARS-CoV-2 NSP8. The assay is described as above. As for the experimental part:
as §1
In the case of B2, the yeast fitness gain is inactive: -0.0267.
Same read-out and setting: the same measure for B5: inactive: -0.0477.

In the next assay the target is SARS-CoV-2 NSP7. The assay is described as above. As for the experimental part:
as §1
As for B3, the yeast fitness gain is inactive: -0.0686.
The same measure, in the same setting: the same measure for B5: inactive: -0.0179.

The next assay addresses SARS-CoV-2 ORF10. The assay is described as above. As for the experimental part:
as §1
B3: the yeast fitness gain is inactive: -0.204.
Same read-out and setting: the same measure for B4: inactive: -0.114; for B5: inactive: -0.0964.

Another assay concerns the target SARS-CoV-2 ORF8. The description is as above. The protocol:
as §1
In the case of B3, the yeast fitness gain is inactive: -0.371.
On the same count and under the same terms, for B4 the value was inactive: -5.7e-06; for B5, inactive: -0.0234.

The target of another assay is SARS-CoV-2 ORF7B. The description is as above. The protocol:
as §1
Consider B4, for which the yeast fitness gain was inactive: 0.105.
With B5, the yeast fitness gain is inactive: 0.0415.

The next assay concerns the target SARS-CoV-2 NSP16. The description is as above. The protocol: as §1
In the case of B5, the yeast fitness gain was inactive: 0.0034.

The next assay concerns the target SARS-CoV-2 NSP4. The description is as above. As for the experimental part:
as §1
As to B5, the yeast fitness gain is inactive: 0.251.

A further assay has as its target SARS-CoV-2 ORF9Bwu (the 73-codon ORF). The assay is described as above. As for the experimental part:
as §1
In the case of B5, the yeast fitness gain is inactive: 0.00714.

A further assay has as its target SARS-CoV-2 S. The assay is described as above. The protocol:
as §1
As for B5, the yeast fitness gain was inactive: 0.0275.

These data come from the supplement of paper PMC11741623.
